Reference: the supplement of paper PMC6828730
Some of the results follow. Repeats are few or missing, and single values can be far off.

tested on: hiPSC-derived cardiomyocytes; assay: time to death of most cells in well after compound addition (days); higher = less cardiotoxic; conditions: screen: 1; 10 µM

SMILES | time to death of most cells in well
O=c1c(O)c(-c2ccc(O)c(O)c2)oc2cc(O)cc(O)c12 [Quercetin] | > 7
N#C/C(=C(/N)Sc1ccc(N)cc1)c1ccccc1C(F)(F)F | > 7
CN1CCN(Cc2ccc(-c3cnc4[nH]cc(-c5ccc6[nH]ccc6c5)c4c3)cc2)CC1 | 2.5
Cc1ccc(C(=O)Nc2ccc(CN3CCN(C)CC3)c(C(F)(F)F)c2)cc1C#Cc1cnc2[nH]ncc2c1 [GZD824 Dimesylate] | 0
C=CC(=O)Nc1ccc2ncnc(Nc3ccc(OCc4cccc(F)c4)c(Cl)c3)c2c1 | 6
C=CC(=O)N1CCC[C@@H](n2nc(-c3ccc(Oc4ccccc4)cc3)c3c(N)ncnc32)C1 | > 7
CCN(CC)CCCC(C)Nc1ccnc2cc(Cl)ccc12 (stereo not drawn) [Chloroquine Phosphate] | > 7
C[C@]1(O)C[C@@H](c2nc(-c3ccc4ccc(-c5ccccc5)nc4c3)c3c(N)nccn32)C1 [Linsitinib (OSI-906)] | > 7
O=C(NOC[C@H](O)CO)c1ccc(F)c(F)c1Nc1ccc(I)cc1F | > 7
CS(=O)(=O)CCNCc1ccc(-c2ccc3ncnc(Nc4ccc(OCc5cccc(F)c5)c(Cl)c4)c3c2)o1 [Lapatinib] | > 7
c1cncc(CN2CCC(n3ncc4c(N5CCOCC5)nc(-c5ccc6[nH]ccc6c5)nc43)CC2)c1 | 5.5
O=C1NC(=O)/C(=C/c2ccc(-c3ccc(F)cc3O)o2)S1 | > 7
O=C(Nc1nc2cccc(-c3ccc(CN4CCS(=O)(=O)CC4)cc3)n2n1)C1CC1 [Filgotinib (GLPG0634)] | 3
Cc1cc(C)c(/C=C2\C(=O)Nc3ccccc32)[nH]1 [Semaxanib (SU5416)] | 5
CN1CCN(c2ccc3nc(-c4c(N)c5c(F)cccc5[nH]c4=O)[nH]c3c2)CC1 [Dovitinib (TKI-258, CHIR-258)] | > 7
COc1cc2nccc(Oc3ccc(NC(=O)C4(C(=O)Nc5ccc(F)cc5)CC4)cc3)c2cc1OC [Cabozantinib malate (XL184)] | > 7
CN(C)C/C=C/C(=O)Nc1cc2c(Nc3ccc(F)c(Cl)c3)ncnc2cc1O[C@H]1CCOC1 [Afatinib (BIBW2992)] | 3
Cc1cc(CS(=O)(=O)c2ccccc2)cc(OCc2ccc(CN3CCC[C@@H]3CO)cc2)c1 | > 7
C=CC(=O)Nc1cccc(Nc2nc(Nc3ccc(OCCOC)cc3)ncc2F)c1 | > 7
Cc1ccc(NC(=O)c2ccc(CN3CCN(C)CC3)cc2)cc1Nc1nc(-c2cccnc2)cs1 [Masitinib (AB1010)] | > 7
CC[C@@](C)(Nc1ccnc(-c2c[nH]c3ncccc23)n1)C(=O)NCC(F)(F)F [Decernotinib (VX-509)] | 6.5
CC(C)CC(NC(=O)C(Cc1ccccc1)NC(=O)C(CCC(N)=O)NC(=O)C(Cc1ccc(O)cc1)NC(=O)C(C)NC(=O)CNC(=O)C(CCCCN)NC(=O)C(Cc1c[nH]c2ccccc12)NC(=O)C(NC(=O)C(Cc1c[nH]c2ccccc12)NC(=O)C(CCCCN)NC(=O)CNC(=O)C(CC(N)=O)NC(=O)C(CCC(=O)O)NC(=O)C(Cc1c[nH]c2ccccc12)NC(=O)C(NC(=O)C(Cc1c[nH]c2ccccc12)NC(=O)C(CO)NC(=O)CNC(=O)C1CCCN1C(=O)C(Cc1c[nH]c2ccccc12)NC(=O)C(CCC(N)=O)NC(=O)C(Cc1ccccc1)NC(=O)CNC(=O)C(N)Cc1c[nH]cn1)C(C)O)C(C)O)C(=O)NC(CCCCN)C(=O)NCC(=O)NCC(=O)NCC(=O)NCC(=O)NC(CO)C(=O)NC(CCCNC(=N)N)C(=O)NC(CCCNC(=N)N)C(=O)NC(CCCNC(=N)N)C(=O)NC(CCCNC(=N)N)C(=O)NC(CCCNC(=N)N)C(=O)NC(CCCNC(=N)N)C(=O)NC(CCCNC(=N)N)C(=O)NC(CCCNC(=N)N)C(=O)NC(CCCNC(=N)N)C(=O)O (stereo not drawn) | 3.5
COc1cccc(-c2cc(=O)c3ccccc3o2)c1N | 6
CN(c1ccccc1CNc1nc(Nc2ccc3c(c2)CC(=O)N3)ncc1C(F)(F)F)S(C)(=O)=O | > 7
CC(C)Nc1cc(-c2c[nH]c(C(=O)N[C@H](CO)c3cccc(Cl)c3)c2)c(Cl)cn1 | > 7
N#Cc1c(O)c2c(-c3ccc(-c4ccccc4O)cc3)csc2[nH]c1=O | > 7
CN1CCC(COc2cnc(-c3cccc(Cn4nc(-c5cccc(C#N)c5)ccc4=O)c3)nc2)CC1 | 2.5
Nc1ncnc2c1c(-c1cnc3[nH]ccc3c1)nn2C1CCCC1 | 6
